Assay results from the BET-seq Pho4 binding data (Le et al. 2018).
The list shows a part of the results. The energies were worked out here from pooled read counts, against the library average; single values are noisy.

Each sequence was assayed against T1, Pho4 (S. cerevisiae) (UniProt P07270) (assay: relative binding free energy (BET-seq); higher = weaker binding). Conditions: reference: library average.
T1 sequence: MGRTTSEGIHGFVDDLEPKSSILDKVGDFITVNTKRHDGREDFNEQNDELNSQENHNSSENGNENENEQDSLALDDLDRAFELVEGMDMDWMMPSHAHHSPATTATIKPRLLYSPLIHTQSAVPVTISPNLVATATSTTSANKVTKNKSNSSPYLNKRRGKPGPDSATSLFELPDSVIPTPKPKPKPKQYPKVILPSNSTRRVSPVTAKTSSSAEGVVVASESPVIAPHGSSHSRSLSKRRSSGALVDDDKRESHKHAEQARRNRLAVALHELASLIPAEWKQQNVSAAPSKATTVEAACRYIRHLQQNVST

| Sequence | relative binding free energy |
| --- | --- |
| CGTTTCACGTGAGTGT | 0.34 kcal/mol |
| AGTTTCACGTGGAATT | 0.33 kcal/mol |
| GATCGCACGTGTGGAG | 0.13 kcal/mol |
| ATTTGCACGTGGTAGT | 0.04 kcal/mol |
| CGTCGCACGTGTTGTG | -0.02 kcal/mol |
| TAGGACACGTGGGAGC | -0.02 kcal/mol |
| AGTAGCACGTGTCAGT | -0.09 kcal/mol |
| GTAGACACGTGTTGAT | -0.03 kcal/mol |
| GTTATCACGTGTTGCA | 0.14 kcal/mol |
| CGAGTCACGTGAGGAG | 0.3 kcal/mol |
| ATTATCACGTGATGAG | 0.18 kcal/mol |
| TGAGGCACGTGGTAGC | -0.16 kcal/mol |
| TGAGTCACGTGTTTAT | 0.2 kcal/mol |
| TAATGCACGTGCGTTT | -0.09 kcal/mol |
| TGGGGCACGTGATTGC | 0.02 kcal/mol |
| AGTATCACGTGAGTTT | 0.41 kcal/mol |
| TCGTTCACGTGGATGT | 0.26 kcal/mol |
| AGTTTCACGTGTATTA | 0.21 kcal/mol |
| ATTGTCACGTGGAGGT | 0.09 kcal/mol |
| GTAGCCACGTGTTGGA | -0.06 kcal/mol |
| ATTGACACGTGAGGGA | 0.27 kcal/mol |
| ATCGGCACGTGGGGGT | -0.22 kcal/mol |
| TAAGGCACGTGCATGT | -0.16 kcal/mol |

| Sequence | relative binding free energy |
| --- | --- |
| AAATTCACGTGGGCTG | 0.11 kcal/mol |
| GGGCGCACGTGATGCG | 0.18 kcal/mol |
| CTTGACACGTGGTGGG | -0.12 kcal/mol |
| ATGGACACGTGAGGGT | 0.25 kcal/mol |
| GTTGCCACGTGGTCTG | -0.19 kcal/mol |
| TGAGACACGTGGGTTT | 0 kcal/mol |
| TTGGACACGTGTTCGT | 0.04 kcal/mol |
| TAGGTCACGTGTTTTT | 0.32 kcal/mol |
| GGGTTCACGTGTCGTT | 0.44 kcal/mol |
| TTGTGCACGTGGAAAA | 0.2 kcal/mol |
| GGGTTCACGTGTACGG | 0.3 kcal/mol |
| TGGGACACGTGATTGA | 0.17 kcal/mol |
| CTGTACACGTGAAGGT | 0.25 kcal/mol |
| CGATTCACGTGATGGT | 0.3 kcal/mol |
| GGTCACACGTGGTAAG | 0.07 kcal/mol |
| TGGGACACGTGGTCGC | 0.01 kcal/mol |
| GAGGGCACGTGCGGAG | -0.15 kcal/mol |
| ATAGTCACGTGTGATA | 0.19 kcal/mol |
| AGGTGCACGTGAGCGT | -0.04 kcal/mol |
| GTACACACGTGTGGTG | 0.03 kcal/mol |
| GGCCACACGTGGGGTT | 0 kcal/mol |
| GACCACACGTGTGGGG | 0.25 kcal/mol |
| GGGTCCACGTGTAATT | 0.2 kcal/mol |

| Sequence | relative binding free energy |
| --- | --- |
| AGGGTCACGTGCGGCG | 0.02 kcal/mol |
| GTGTTCACGTGGTTGA | 0.3 kcal/mol |
| GAGTACACGTGAGGGT | 0.31 kcal/mol |
| TTAGGCACGTGGCACG | -0.16 kcal/mol |
| TGGGGCACGTGGAACA | 0.01 kcal/mol |
| GAGGGCACGTGGCGTC | -0.15 kcal/mol |
| GTATACACGTGAGGAT | 0.18 kcal/mol |
| TAATTCACGTGAAGTA | 0.34 kcal/mol |
| AAGAGCACGTGATGGG | 0.01 kcal/mol |
| GGTCACACGTGTGTTT | 0.25 kcal/mol |
| GTTGGCACGTGCATTT | -0.05 kcal/mol |
| TTCTACACGTGGATGT | 0.12 kcal/mol |
| GTAAACACGTGATGTA | 0.24 kcal/mol |
| AGAAACACGTGCGGGT | 0.04 kcal/mol |
| GTGTTCACGTGTTTAG | 0.25 kcal/mol |
| TTTAGCACGTGTGACA | 0.02 kcal/mol |
| AGTTGCACGTGATCTT | 0.07 kcal/mol |
| TCTGACACGTGGCGGG | -0.07 kcal/mol |
| ACTTTCACGTGGTATA | 0.14 kcal/mol |
| TCTTGCACGTGGGTGA | -0.14 kcal/mol |
| ATATGCACGTGTGGGC | -0.14 kcal/mol |
| GGTTACACGTGTGTAC | 0.14 kcal/mol |
| TATGACACGTGTAATG | 0.2 kcal/mol |

| Sequence | relative binding free energy |
| --- | --- |
| GGGTGCACGTGGGCCC | -0.05 kcal/mol |
| GTGGACACGTGTGTGT | 0.1 kcal/mol |
| TGTATCACGTGTAATA | 0.13 kcal/mol |
| AGCGTCACGTGGGGGG | -0.13 kcal/mol |
| CAGGTCACGTGGAGTA | 0.06 kcal/mol |
| GTTATCACGTGGTTTT | 0.22 kcal/mol |
| TTTGACACGTGTAAAA | 0.16 kcal/mol |
| TGTTGCACGTGAGGAA | 0.22 kcal/mol |
| TTCTACACGTGTTTTT | 0.17 kcal/mol |
| ATGTGCACGTGTTGAG | -0.01 kcal/mol |
| AGTGACACGTGGTATG | -0.06 kcal/mol |
| AGGGACACGTGCGTCT | 0.03 kcal/mol |
| GTTGGCACGTGCGTTG | -0.08 kcal/mol |
| ATGGTCACGTGTGTTA | 0.16 kcal/mol |
| TATCTCACGTGGTGTG | 0.09 kcal/mol |
| ATGAACACGTGATTGG | 0.15 kcal/mol |
| AGTAGCACGTGTCGGC | -0.08 kcal/mol |
| TGGTGCACGTGAATAA | 0.14 kcal/mol |
| ATTCTCACGTGGGATT | 0.19 kcal/mol |
| TCAGACACGTGTTGGG | 0.06 kcal/mol |
| TTATCCACGTGAGGTA | 0.17 kcal/mol |
| TGGTGCACGTGGCTAA | 0.02 kcal/mol |
| CGGCGCACGTGGGCGT | -0.35 kcal/mol |

| Sequence | relative binding free energy |
| --- | --- |
| GCGGTCACGTGAAATT | 0.54 kcal/mol |
| GGCGGCACGTGTAGTG | 0.07 kcal/mol |
| GAATGCACGTGTGCTG | 0.04 kcal/mol |
| ATTTGCACGTGGGTCG | 0.01 kcal/mol |
| AGGAGCACGTGTAGGC | -0.16 kcal/mol |
| AGTAGCACGTGATATT | 0.19 kcal/mol |
| AAATGCACGTGCGGGG | -0.03 kcal/mol |
| AGGGGCACGTGAAAGA | 0.25 kcal/mol |
| AAGAGCACGTGAGGTA | 0.07 kcal/mol |
| TTTGACACGTGGAGGC | 0.02 kcal/mol |
| ATGTTCACGTGCTTGA | 0.28 kcal/mol |
| GGTTCCACGTGGTGTT | 0.13 kcal/mol |
| AGTGTCACGTGTTAGG | 0.07 kcal/mol |
| CTGAGCACGTGTGTAG | -0.02 kcal/mol |
| TATCGCACGTGAGGTC | 0.21 kcal/mol |
| ATAGGCACGTGCGTGA | -0.16 kcal/mol |
| GTGAACACGTGATGGA | 0.17 kcal/mol |
| TGACGCACGTGAGGGG | 0.11 kcal/mol |
| CGGGGCACGTGTGGCA | -0.11 kcal/mol |
| AGTACCACGTGGTGGA | -0.11 kcal/mol |
| CGTTTCACGTGAGAGG | 0.35 kcal/mol |
| AATAACACGTGGTGAT | 0.03 kcal/mol |
| GGGGGCACGTGTTAGG | -0.09 kcal/mol |
